Source: PubChem BioAssay AID504832 (National Center for Advancing Translational Sciences (NCATS), 2011)
Screen size: about 310,000 compounds; about 18,000 (5.8%) were called active. The inconclusive results got no clear call from the source; some entries with a clear call stand among them for comparison. Calls come from the whole dose curve; as a rule, active = well fitted inhibition curve with a large enough effect; inconclusive = small, poorly fitted or top-dose-only effect, or another doubt; inactive = no such curve, though single readings can be large or run the other way. No potency is given beside an inconclusive call; the fits are too rough.

Experiment: Primary qHTS for delayed death inhibitors of the malarial parasite plastid, 48 hour incubation
Conditions: P. falciparum luciferase growth in erythrocytes; series mostly up to 28.7 µM; activity change, negative = inhibition: at the top concentration
Outline: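 Luminescence readout; reporter = integrated firefly luciferase in P. falciparum. RBC culture at 2% hematocrit, 0.1% parasitemia final, 37 C/5% CO2; decreased signal taken as growth inhibition.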
% is set by controls: 0 for no effect and ±100 for the full control effect; potency is the fitted concentration of half-maximal effect; tags give direction and shape of the fitted curve.

| SMILES | Potency | activity change, negative = inhibition |
| --- | --- | --- |
| CN(C(=S)NC(=O)/C=C/c1ccc(F)cc1)C1CCCCC1 | inconclusive [inhibitor, partial curve, poor fit] |  |
| C/C(=N\Nc1ccc(Cl)c(C(=O)O)c1)c1cccs1 | inconclusive [inhibitor, full curve, poor fit] |  |
| Cc1ccc(-n2c(SCC(=O)NCc3ccco3)nc3c([nH]c4ccccc43)c2=O)cc1 | inconclusive [inhibitor, single point] |  |
| Cc1cc(C)nc(N/N=C/c2ccccc2OCc2ccc([N+](=O)[O-])cc2)n1 | inconclusive [inhibitor, single point] |  |
| Cc1nc(CNC(=O)C2CCC(=O)N(CCc3ccc(Cl)cc3)C2)sc1C (stereo not drawn) | inconclusive [inhibitor, single point] |  |
| Oc1c(Br)cc(Br)cc1Br | inactive |  |
| O=C1C=C(c2cccc(CO)c2)C[C@@H](c2ccc(Cl)cc2)C1 | active: 0.329 µM |  |
| Cc1cc(Cl)c(OCCCN2CCCCC2)c(Br)c1 | inconclusive [inhibitor, single point] |  |
| COc1ccc(S(=O)(=O)N2CCCCC2)cc1NC(=O)Cc1cccs1 | active: 11.7 µM |  |
| COc1cc(C(=O)N2c3ccccc3CCC2C)cc(OC)c1OC (stereo not drawn) |  | inactive: -15% |
| Cn1nc(C(C)(C)C)c([N+](=O)[O-])c1C(=O)Nc1cccc2ccccc12 | active: 11.7 µM |  |
| O=C(NCc1ccc(F)cc1)C(=O)c1cn(CC(=O)N2CCCC2)c2ccccc12 | inconclusive [inhibitor, single point] |  |
| COC(=O)C1=C(CSc2nc3ccccc3s2)NC(=O)NC1c1ccc(F)cc1 (stereo not drawn) | inconclusive [inhibitor, single point] |  |
| CCOC(=O)C1(Cc2ccccc2)CCN(Cc2ccc(C)s2)CC1 | inconclusive [inhibitor, single point] |  |
| Cc1ccc(CNC(=O)C2CC(=O)N(C3CCCC3)C2)cc1 (stereo not drawn) |  | inactive: -1.61% |
| COc1ccc(C(=O)c2sc(Nc3ccccc3)nc2N)cc1 | inconclusive [inhibitor, partial curve, poor fit] |  |
| CCN(CC)c1ccc(/C=N/Nc2ccccc2)c(O)c1 | inconclusive [inhibitor, single point] |  |
| O=C(CN1C(=O)C2C3CCC(C3)C2C1=O)OCC(=O)c1ccc(Br)cc1 (stereo not drawn) |  | inactive: 15.1% |
| O=c1c(Cc2ccc(F)cc2)c(O)ccn1C1CC1 | active: 5.22 µM |  |
| Cc1ccc(OCCCC(=O)Nc2ccc(S(=O)(=O)Nc3ccccn3)cc2)cc1 | inconclusive [inhibitor, partial curve, poor fit] |  |
| COc1ccccc1CNc1ccc2nnc(CCNC(=O)c3ccccc3)n2n1 | inconclusive [inhibitor, single point] |  |
| COc1cc(C(=O)Nc2nc(-c3ccc(C)cc3)cs2)ccc1OCC(=O)N1CCOCC1 | inconclusive [inhibitor, single point] |  |

| SMILES | Potency | activity change, negative = inhibition |
| --- | --- | --- |
| CCc1cc(-c2[nH]ncc2-c2ccc(OC)cc2)c(O)cc1O | inconclusive [inhibitor, partial curve] |  |
| O=C(Nc1ccccc1Cl)N1CCSc2ccccc21 | active: 1.47 µM |  |
| O=C(Nc1ccc(F)cc1)c1cccc2c1C(=O)N(CC1CCCO1)C2 (stereo not drawn) | inconclusive [inhibitor, partial curve, poor fit] |  |
| CCCCn1c(N)c(N(CCC(C)C)C(=O)C2CCN(C(=O)c3ccccc3C)CC2)c(=O)[nH]c1=O | inconclusive [inhibitor, single point] |  |
| COC(=O)Cn1c(=NC(=O)c2ccc(S(=O)(=O)N3CCOCC3)cc2)sc2cc(S(N)(=O)=O)ccc21 | inconclusive [inhibitor, single point] |  |
| Cc1ccc(CN2CCc3c(OCC(=O)Nc4cccc(C)c4C)cccc3C2=O)cc1 | inconclusive [inhibitor, partial curve, poor fit] |  |
| Cc1ccc(C(c2nnnn2Cc2ccccc2)N2CCN(Cc3ccccc3)CC2)cc1 (stereo not drawn) | inconclusive [inhibitor, single point] |  |
| CNC(=S)NNC(=O)COc1cccc(C)c1C |  | inactive: -0.376% |
| Cc1c(C(=O)O)oc2c1/C(=N\O)CC(C)(C)C2 |  | inactive: 6.98% |
| CN1C(=O)/C(=C/c2ccccc2OCc2ccc(F)cc2)N(C)C1=S | inconclusive [inhibitor, single point] |  |
| COC(=O)/C=C/S(=O)(=O)c1ccc(NC(C)=O)cc1 | inconclusive [inhibitor, partial curve] |  |
| CCN(CC)C(=O)COc1ccc(/C(C)=N/NC(=O)c2ccccc2O)cc1 |  | inactive: 9.83% |
| N=c1c2c(ncn1CCCO)Oc1ccc3ccccc3c1C2c1ccccc1 (stereo not drawn) | inconclusive [inhibitor, partial curve] |  |
| C/C(=N\Nc1cc(N2CCOCC2)nc(C)n1)c1cccc([N+](=O)[O-])c1 | inconclusive [inhibitor, partial curve, poor fit] |  |
| Cc1ccc2occ(C(c3nnnn3C3CCCC3)N3CCN(C(=O)c4ccco4)CC3)c(=O)c2c1 (stereo not drawn) | inconclusive [inhibitor, single point] |  |
| O=S(=O)(c1cc(-c2nc3ccccc3s2)ccc1Cl)N1CCOCC1 | inconclusive [inhibitor, single point] |  |
| COc1cc(OC)c2ccc(=O)oc2c1C(CCN1CCCC(C)C1)c1ccc(N(C)C)cc1 (stereo not drawn) | inconclusive [inhibitor, single point] |  |
| CCCCC(=O)Nc1sc2c(c1C(=O)OCC)CCC(C=O)=C2Cl | inconclusive [inhibitor, single point] |  |
| COc1ccc(S(=O)(=O)NNC(=O)C2CC(c3cccnc3)=NO2)cc1 (stereo not drawn) |  | inactive: 6.8% |
| CC(C)CC(NC(=O)c1ccc(C#CC(C)(C)O)s1)C(=O)O (stereo not drawn) |  | inactive: 11.7% |
| CCOC(=O)C1(CCc2ccccc2)CCN(C(=O)[C@@H]2C[C@@H](C)NC(=S)N2)CC1 | inconclusive [inhibitor, partial curve] |  |
